Among all 310,000 compounds or so, about 14,000 (4.5%) showed an effect of 50% or more. The effect is printed as a negative number. Some of the results follow.
The compounds below were run against human ether-à-go-go-related gene (hERG) potassium channel (human, UniProt Q12809) (assay: primary screen, population patch clamp on CHO cells stably expressing hERG).
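Also: peak tail current of the secondary pulse compared with the same well before compound.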

human ether-à-go-go-related gene (hERG) potassium channel, sequence (Q12809 whole entry, looked up): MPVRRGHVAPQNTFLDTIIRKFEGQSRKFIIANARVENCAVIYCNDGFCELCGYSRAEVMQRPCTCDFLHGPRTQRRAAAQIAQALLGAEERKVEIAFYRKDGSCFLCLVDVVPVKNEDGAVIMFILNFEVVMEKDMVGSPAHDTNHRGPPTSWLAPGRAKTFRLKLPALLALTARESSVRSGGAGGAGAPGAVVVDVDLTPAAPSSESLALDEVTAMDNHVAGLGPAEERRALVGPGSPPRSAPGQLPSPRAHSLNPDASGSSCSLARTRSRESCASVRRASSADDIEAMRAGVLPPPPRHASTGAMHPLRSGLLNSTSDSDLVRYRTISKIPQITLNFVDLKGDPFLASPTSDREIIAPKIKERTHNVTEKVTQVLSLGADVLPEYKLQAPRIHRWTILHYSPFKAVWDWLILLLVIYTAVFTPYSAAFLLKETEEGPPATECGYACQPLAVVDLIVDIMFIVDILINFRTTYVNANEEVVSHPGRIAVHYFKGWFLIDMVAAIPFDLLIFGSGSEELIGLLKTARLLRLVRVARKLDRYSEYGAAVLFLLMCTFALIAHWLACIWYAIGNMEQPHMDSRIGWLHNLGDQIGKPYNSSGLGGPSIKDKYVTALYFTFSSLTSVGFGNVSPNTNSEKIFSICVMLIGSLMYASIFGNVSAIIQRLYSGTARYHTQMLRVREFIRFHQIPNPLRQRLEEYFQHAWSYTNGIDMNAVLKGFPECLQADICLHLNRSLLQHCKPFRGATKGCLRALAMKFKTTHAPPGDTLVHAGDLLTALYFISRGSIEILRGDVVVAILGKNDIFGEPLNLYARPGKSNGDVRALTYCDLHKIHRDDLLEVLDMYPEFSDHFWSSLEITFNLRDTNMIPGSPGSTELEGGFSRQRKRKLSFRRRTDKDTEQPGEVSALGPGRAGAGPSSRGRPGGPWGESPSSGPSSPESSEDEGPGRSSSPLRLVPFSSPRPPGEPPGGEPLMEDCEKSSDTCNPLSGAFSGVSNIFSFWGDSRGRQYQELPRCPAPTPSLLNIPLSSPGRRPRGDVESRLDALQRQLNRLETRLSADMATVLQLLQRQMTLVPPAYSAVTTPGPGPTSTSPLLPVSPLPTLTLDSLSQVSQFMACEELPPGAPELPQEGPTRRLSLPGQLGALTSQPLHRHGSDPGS

| SMILES | hERG current change (%, negative = inhibition) at 10uM [%] |
| --- | --- |
| CCCn1nc(C(=O)Nc2nnc(CC)s2)c2ccccc2c1=O | -0.743 |
| O=C(CC1C(=O)NCCN1Cc1ccccc1)NCCN1CCCCC1=O (centres unmarked) | 19.1 |
| COCCNC(=O)CN(C(=O)Cn1nnc2ccccc21)c1cccc(C)c1C | 11.9 |
| Cc1ccccc1NC(=O)c1cc(S(=O)(=O)c2ccccc2)ccc1Cl | 9.51 |
| Cc1cc2cc(CNC(=O)c3cccs3)ccc2[nH]1 | 7.46 |
| CCC(=O)Nc1cccc(C2=NOC3(C2)C[C@@H](C(N)=O)N(C(=O)CC(c2ccccc2)c2ccccc2)C3)c1 (some centres unmarked) | -3.63 |
| Cc1cc(Cl)ccc1OCC(=O)OCC(=O)Nc1cccnc1Cl | -0.711 |
| CCC(C)[C@H](NC(=O)N1CC(=O)Nc2ccccc21)C(=O)N1CCC(C(=O)O)CC1 (some centres unmarked) | 11.3 |
| Cc1c(C(=O)NC(c2ccccn2)C(F)(F)F)oc2c(F)cccc12 (centres unmarked) | 20 |
| O=C(NNC(=S)Nc1ccccc1Cl)c1ccccc1 | 5.93 |
| COc1ccc(NC(=O)c2ccc3c(c2)OCO3)cc1[N+](=O)[O-] | 25.5 |
| CCC(C)C(=O)Nc1cccc(SC)c1 (centres unmarked) | 16 |
| CN(C)c1ccc(CNn2cnnc2SCc2ccccc2F)cc1 | -17.6 |
| O=C(NC1CCCCC1)C1CC(=O)N(Cc2ccccc2)C1 (centres unmarked) | 16.7 |
| COc1ccc(C(=O)Nc2ccc(NC(=O)c3ccccc3F)cn2)cc1 | 13.9 |
| Cc1ccc(C(=O)c2cc([N+](=O)[O-])ccc2N2CCCCC2)cc1 | -5.08 |
| COc1ccc(-c2noc(CN(C(=O)c3c(-c4ccccc4Cl)noc3C)C(C)C)n2)cc1 | 14.8 |
| CC1(C)Cc2c(cnn2-c2ccccc2)-c2c1c1ccccc1n2CC(O)CCl (centres unmarked) | 9.96 |
| Cc1cc(C(=O)Nc2ccccc2C(F)(F)F)no1 | 17.8 |
| CC(=O)NC(CCS(C)(=O)=O)C(=O)N1CCc2ccccc21 (centres unmarked) | -0.0527 |
| CCN(CC(=O)NCc1ccc(F)cc1)C(=O)c1ccc(Cl)cc1 | -23.7 |
| O=C(c1nc2ccccn2c1CNCC1OCCc2ccccc21)N1CCOCC1 (centres unmarked) | -0.852 |

| SMILES | hERG current change (%, negative = inhibition) at 10uM [%] |
| --- | --- |
| O=C(O)c1ccc2oc(=O)c(S(=O)(=O)c3ccc(F)cc3)cc2c1 | 21.7 |
| CCCCOc1ccc(C2C(C(=O)c3cccs3)=C(O)C(=O)N2CCN2CCOCC2)cc1 (centres unmarked) | 21.8 |
| Cc1c(NC(=O)CSc2ccc3c(c2)OCCO3)c(=O)n(-c2ccccc2)n1C | -10.3 |
| COc1cc(/C=C(\C#N)C(=O)NCC2CCCO2)ccc1OCC(N)=O (centres unmarked) | 28.7 |
| O=C(NNC(=O)c1ccc2c(=O)n3c(nc2c1)CCC3)c1ccc(Cl)cc1 | -13.3 |
| N#CCCN1CCN(S(=O)(=O)c2ccc(S(=O)(=O)NCC3CCCO3)cc2)CC1 (centres unmarked) | 3.48 |
| Cc1cccc2cc(C3CC(c4cccs4)=NN3S(C)(=O)=O)c(Cl)nc12 (centres unmarked) | -0.435 |
| O=C(Cn1cc(C(=O)c2cccs2)c2ccccc21)NCc1ccc2c(c1)OCO2 | -1.56 |
| O=S(=O)(c1ccccc1)N1CCN=C1SCc1cccnc1 | -12.1 |
| COc1cc2c(cc1OC)CN(C(=O)Nc1ccccc1Cl)CC2 | 9.9 |
| O=C(O)COCC(=O)Nc1ccccc1-c1ccccc1 | 12.7 |
| CC1=C(C(=O)O)N2C(=O)[C@@H](NC(=O)CCCC(=O)O)[C@H]2SC1 | 1.03 |
| Cc1cc(Cl)ccc1Nc1ncccc1C(N)=O | -0.7 |
| CCN1CCN(Cc2ccc(OCc3ccccc3)cc2)CC1 | -31.2 |
| Cc1ccc(S(=O)(=O)N2CCOCC2)cc1NC(=O)COC(=O)c1cc(=O)[nH]c2ccccc12 | 10.2 |
| Cc1cc(C)c(-c2csc(NC(=O)C3=COCCO3)n2)cc1C | 2.49 |
| O=C(c1ccccc1F)N1CCN(CC2CC3C=CC2C3)CC1 (centres unmarked) | -16.4 |
| CN(C)CCNc1oc(COc2ccc(-c3ccccc3)cc2)nc1C#N | -28 |
| Cc1ccccc1NC(=O)NCCCN1CCN(C)CC1 | 28.1 |
| COC(=O)c1ccc(C(=O)N2CCCC(CNC(=O)c3ccc(F)cc3)C2)cc1 (centres unmarked) | -5.82 |
| C=CCn1c(OCc2ccccc2)n[nH]c1=S | 23.8 |
| COc1ccc(C2C3=C(CC(C)(C)CC3=O)Oc3ncn4nc(-c5cccnc5)nc4c32)cc1 (centres unmarked) | -2.59 |
